Results: PubChem BioAssay AID1476 (National Center for Advancing Translational Sciences (NCATS), 2009)
The whole screen tested about 200,000 compounds, of which about 4,500 (2.2%) were called active. The inconclusive results got no clear call from the source; some entries with a clear call stand among them for comparison. Calls come from the whole dose curve; as a rule, active = well fitted inhibition curve with a large enough effect; inconclusive = small, poorly fitted or top-dose-only effect, or effect the other way; inactive = flat fitted curve, though single readings scatter. A potency beside an inconclusive call is a rough fit, not a confirmed value.

Biological target: Cruzipain (Trypanosoma cruzi) (UniProt P25779)
Sequence of UniProt P25779 (P25779 whole entry, looked up): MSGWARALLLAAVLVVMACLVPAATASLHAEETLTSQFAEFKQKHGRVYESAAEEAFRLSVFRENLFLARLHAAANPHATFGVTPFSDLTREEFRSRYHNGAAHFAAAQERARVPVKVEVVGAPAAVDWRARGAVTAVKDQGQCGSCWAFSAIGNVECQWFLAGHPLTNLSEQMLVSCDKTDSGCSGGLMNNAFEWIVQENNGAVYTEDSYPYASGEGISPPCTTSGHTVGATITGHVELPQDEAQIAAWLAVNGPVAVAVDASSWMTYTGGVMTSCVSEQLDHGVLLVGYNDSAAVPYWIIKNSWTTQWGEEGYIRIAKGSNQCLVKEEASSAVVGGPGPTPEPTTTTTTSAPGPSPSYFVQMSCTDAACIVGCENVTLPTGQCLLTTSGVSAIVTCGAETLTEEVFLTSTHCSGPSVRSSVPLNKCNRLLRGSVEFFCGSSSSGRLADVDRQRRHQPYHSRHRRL
Assay: qHTS Assay for Promiscuous and Specific Inhibitors of Cruzain (without detergent); note: nearly all actives have a fitted effect of over 40% in size;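 for max response, negative = inhibition: plate controls were enzyme without inhibitor for no effect and buffer without enzyme for full effect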
Conditions: purified cruzain, Z-FR-AMC fluorescence, no detergent
Procedure, shortened: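 Purified cruzain at 1.5 nM, pre-incubated 15 min with compound at room temperature in 100 mM sodium acetate pH 5.5, 5 mM DTT, 0.00005% Triton X-100. Reaction started with 2 uM Z-FR-AMC; AMC fluorescence increase over 60 s gives rate.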
Potency is the fitted concentration of half-maximal effect; tags give direction and shape of the fitted curve.

**Q.** `COc1ccc2c(CNC3CCCCCC3)c(C(=O)O)n(Cc3ccccc3F)c2c1` was tested. Which max response, negative = inhibition did it give?
**A.** The max response, negative = inhibition was inactive: -2.89%.

**Q.** How did the Potency turn out when `CCCCOc1ccc(S(=O)(=O)NC(=O)NCc2ccc(OCCC)cc2)cc1` was run?
**A.** Its Potency is active: 25.1 µM.

**Q.** `O=C(Nc1ccc(C(=O)OCc2cc(=O)n3nc(C4CC4)sc3n2)cc1)c1cccc(F)c1` was tested. Which max response, negative = inhibition did it give?
**A.** The max response, negative = inhibition was inactive: -8.39%.

**Q.** With `COCCCNC(=O)c1ccc2c(c1)nc(C)n2-c1cccc(C)c1` as the compound, how does the Potency read?
**A.** The Potency was inconclusive: 39.8 µM [activator, single point].

**Q.** `CCOC(=O)C1CCN(C(=O)CN(c2cc(OC)ccc2OC)S(=O)(=O)c2ccccc2)CC1` was tested. Which Potency did it give?
**A.** The Potency was inconclusive: 31.6 µM [activator, single point].

**Q.** Which Potency does the source give for `c1ccc(Nc2nnc(SCc3cccc4ccccc34)s2)cc1` here?
**A.** The Potency was inconclusive: 39.8 µM [inhibitor, single point].

**Q.** With `Cc1ccc(CCNC(=O)c2cc3c(-c4ccccc4F)nn(C)c3s2)cc1` as the compound, how does the Potency read?
**A.** The Potency was inconclusive: 15.8 µM [inhibitor, single point].

**Q.** How did the Potency turn out when `COc1ccc(OC)c(NC(=O)c2cn(CC(C)C)c(=O)c3cc(OC)c(OC)cc23)c1` was run?
**A.** The Potency was inconclusive: 39.8 µM [activator, single point].

**Q.** Which Potency does the source give for `Cc1cccc(NC(=O)CN(c2ccc(C(C)C)cc2)S(=O)(=O)c2c(C)nn(C)c2C)n1` here?
**A.** Its Potency is inconclusive: 31.6 µM [activator, single point].

**Q.** For `CCOc1ccccc1Nc1sc(C(=O)c2ccccc2)c(N)c1S(=O)(=O)c1ccc(C)cc1`, which Potency is on record?
**A.** Its Potency is inconclusive: 3.98 µM [inhibitor, partial curve].

**Q.** Which max response, negative = inhibition does the source give for `c1ccc(Nc2nc(N3CCCC3)nc(N3CCCC3)n2)cc1` here?
**A.** The max response, negative = inhibition was inactive: -14.9%.

**Q.** For `O=c1[nH]c2ccc(NCc3ccc(-c4ccccc4)o3)cc2[nH]1`, which Potency is on record?
**A.** The Potency was inconclusive: 31.6 µM [inhibitor, single point].

**Q.** How did the Potency turn out when `CCNc1ncc2nc(-c3ccccc3)c(=O)n(C)c2n1` was run?
**A.** The Potency was inconclusive: 7.94 µM [activator, single point].

**Q.** With `O=C(CSc1nc(-c2ccccc2)nc2c1Cc1ccccc1O2)N1CCCCC1` as the compound, how does the max response, negative = inhibition read?
**A.** The max response, negative = inhibition was inactive: -1.09%.

**Q.** With `Cc1ccc(C2CC(c3cccs3)=NN2C(=O)CSc2nc3ccccc3o2)cc1` (stereo not given) as the compound, how does the Potency read?
**A.** Its Potency is inconclusive: 39.8 µM [inhibitor, single point].

**Q.** With `O=C(NCc1ccccc1F)C(=O)NCC(c1ccco1)S(=O)(=O)c1cccs1` (stereo not given) as the compound, how does the max response, negative = inhibition read?
**A.** The max response, negative = inhibition was inactive: 0.442%.

**Q.** With `CCC(C)NC(=O)c1ccc2nc(CCc3ccccc3)oc2c1` (stereo not given) as the compound, how does the max response, negative = inhibition read?
**A.** Its max response, negative = inhibition is inactive: -1.42%.

**Q.** `CC(=O)Nc1ccc(-c2csc(NC(=O)C3CCN(S(=O)(=O)c4cccs4)CC3)n2)cc1` was tested. Which Potency did it give?
**A.** The Potency was inconclusive: 3.16 µM [inhibitor, full curve, poor fit].

**Q.** Which Potency does the source give for `CC(C)COc1ccc(C(=O)Nc2ccc(SC(F)F)cc2)cc1` here?
**A.** Its Potency is inconclusive: 39.8 µM [inhibitor, single point].

**Q.** With `O=C(NCCc1ccc(Cl)cc1)c1cc(-c2ccc(Cl)cc2)n[nH]1` as the compound, how does the Potency read?
**A.** The Potency was inconclusive: 31.6 µM [inhibitor, single point].

**Q.** For `Cc1cccc(C)c1Oc1nc(-c2ccccc2)ncc1S(=O)(=O)c1ccccc1`, which Potency is on record?
**A.** Its Potency is inconclusive: 39.8 µM [inhibitor, single point].

**Q.** Which max response, negative = inhibition does the source give for `CCCCOC(=O)c1ccc(NC(=O)c2cc(-c3cccs3)on2)cc1` here?
**A.** The max response, negative = inhibition was inactive: 1.66%.

**Q.** Which Potency does the source give for `COc1ccc(-n2c(Cc3cccn3C)nnc2SCC(=O)N2CCCc3ccccc32)cc1` here?
**A.** The Potency was inconclusive: 39.8 µM [activator, single point].

**Q.** Which max response, negative = inhibition does the source give for `CCOC(=O)c1c(NC(=O)/C=C/c2ccc(C)cc2)sc2c1CCCC2` here?
**A.** The max response, negative = inhibition was inactive: -3.02%.

**Q.** How did the Potency turn out when `CCOC(=O)c1c(C)[nH]c(C(=O)OCC(=O)N2CCN(S(=O)(=O)c3ccccc3)CC2)c1C` was run?
**A.** Its Potency is inconclusive: 39.8 µM [activator, single point].

**Q.** `CCC1=C(OC(=O)N(CC)CC)N2C(=O)OC(=NCCOC)[C@]2(C)[C@H]2C1=CC[C@H]1C(=O)N(CC)C(=O)[C@H]12` was tested. Which Potency did it give?
**A.** Its Potency is inconclusive: 25.1 µM [activator, partial curve].

**Q.** `O=C(CSC1=NCCS1)Nc1cccc2ccccc12` was tested. Which Potency did it give?
**A.** Its Potency is inconclusive: 0.199 µM [inhibitor, full curve, poor fit].

**Q.** How did the Potency turn out when `CCOC(=O)C1=C(CSc2nc(-c3ccccc3)ccc2C#N)OC(N)=C(C#N)C1c1cccnc1` (stereo not given) was run?
**A.** The Potency was inconclusive: 15.8 µM [inhibitor, partial curve, poor fit].

**Q.** For `COC(=O)c1cc(Cl)ccc1NC(=O)CSc1ncc(S(=O)(=O)c2ccc(Br)cc2)c(=O)[nH]1`, which Potency is on record?
**A.** Its Potency is inconclusive: 15.8 µM [activator, partial curve].

**Q.** With `CC1(C)CC(=O)c2c(oc3c(Cl)cc(NS(=O)(=O)c4ccc(Br)cc4)cc23)C1` as the compound, how does the max response, negative = inhibition read?
**A.** The max response, negative = inhibition was inactive: -3.23%.

**Q.** `CC(=O)N1CCc2c(sc3c2c(=O)n(-c2cc(Cl)ccc2C)c(=O)n3Cc2ccccc2F)C1` was tested. Which Potency did it give?
**A.** Its Potency is inconclusive: 31.6 µM [activator, partial curve].

**Q.** Which Potency does the source give for `COc1ccc(/C=C/C(=O)OCc2cc(=O)n3c(n2)sc2ccccc23)cc1` here?
**A.** The Potency was inconclusive: 39.8 µM [inhibitor, single point].

**Q.** `O=C(NC1CCCCCC1)C1CCC(CNS(=O)(=O)c2ccc(Br)s2)CC1` (stereo not given) was tested. Which Potency did it give?
**A.** The Potency was inconclusive: 39.8 µM [inhibitor, single point].

**Q.** How did the Potency turn out when `Cc1cc(OCCn2cc(/C(N)=N/O)c3ccccc32)ccc1Cl` was run?
**A.** The Potency was inconclusive: 31.6 µM [inhibitor, single point].

**Q.** Which max response, negative = inhibition does the source give for `Cc1ccc(NC(=O)CCCn2c(=O)c3cccn3c3cccnc32)cc1C` here?
**A.** The max response, negative = inhibition was inactive: -11.6%.

**Q.** For `CCC(=O)Nc1ccc(/C(C)=N\NC(=O)c2ccc(OC)cc2)cc1`, which Potency is on record?
**A.** Its Potency is inconclusive: 39.8 µM [inhibitor, single point].

**Q.** Which Potency does the source give for `Cc1cc(/C=N/n2c(COc3ccccc3C)nc3ccccc3c2=O)c(O)c([N+](=O)[O-])c1` here?
**A.** Its Potency is inconclusive: 39.8 µM [inhibitor, single point].

**Q.** With `CCCCN1CCc2c([nH]c3ccccc23)C1=O` as the compound, how does the Potency read?
**A.** Its Potency is inconclusive: 31.6 µM [inhibitor, single point].

**Q.** Which Potency does the source give for `Cc1cc2cc(CNC(=S)Nc3ccc(OC(F)(F)F)cc3)ccc2n1C` here?
**A.** Its Potency is inconclusive: 39.8 µM [inhibitor, single point].

**Q.** Which Potency does the source give for `CCOc1ccc(S(=O)(=O)c2c(C(=O)c3ccc(C)cc3)cnc3cc4c(cc23)OCCO4)cc1` here?
**A.** Its Potency is active: 6.31 µM.
